Data reported in PubChem BioAssay AID1240 (Sanford-Burnham Center for Chemical Genomics, 2008).
The campaign covered roughly 50,000 compounds. About 800 (1.6%) showed an effect of 50% or more. The list shows a part of the results.

Each compound was assayed against Bcl-2-like protein 10 (Homo sapiens) (UniProt Q9HD36) (assay: Phenotype converters, Bcl-B/TR3 peptide binding displacement, primary biochemical FP (AID 1240;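 also: 0% = Bcl-B with tracer peptide and DMSO and 100% = tracer peptide lacking Bcl-B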)). Details: GST-Bcl-B / FITC-TR3 peptide fluorescence polarization; stronger effect = higher value; compound at 3.75 mg/L.
Chain of UniProt Q9HD36 (Q9HD36 whole entry, looked up): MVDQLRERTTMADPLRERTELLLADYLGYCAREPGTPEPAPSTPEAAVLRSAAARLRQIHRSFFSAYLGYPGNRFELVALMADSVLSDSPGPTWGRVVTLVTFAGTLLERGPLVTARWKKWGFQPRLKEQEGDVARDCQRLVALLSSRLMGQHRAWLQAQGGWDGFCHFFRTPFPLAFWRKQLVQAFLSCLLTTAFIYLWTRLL

Point of comparison: `C/C(=N\NC(=O)c1cc(C(C)(C)C)[nH]n1)c1cccc([N+](=O)[O-])c1`, displacement -5.3%. Against it:
- COc1ccc(S(=O)(=O)N2CCN(Cc3cccn3C)CC2)cc1 — lower, -7%
- COc1ccc2nc(SCC(=O)NCCc3ccccc3)[nH]c2c1 — higher, -0.4%
- CN(C)CCCNC(=O)/C=C/c1ccc(C(C)(C)C)cc1 — higher, 6.4%
- Cc1cccnc1NC(=O)Nc1cccc(F)c1 — higher, -1.7%
- O=C(N/N=C/c1ccc(C(=O)O)cc1)C(=O)N1CCCCCC1 — lower, -13.8%
- COC(=O)C1=C(C)NC2=C(C(=O)CC(C)(C)C2)C1c1cccc(Cl)c1 (stereo not given) — higher, 2.8%
- Cc1cc(Cl)ccc1NC(=O)c1ccccc1[N+](=O)[O-] — higher, -4.1%
- CC(Cc1ccccc1)NC(=O)CC(c1ccccc1)c1ccc(O)c(Cl)c1Cl (stereo not given) — higher, 2.6%
- CCOC(=O)c1ccc(Nc2nc3nonc3nc2NC(C)C)cc1 — lower, -7.1%
- CC1(c2ccccc2)CC(C)(C)N(C(N)=O)c2ccccc21 (stereo not given) — higher, 4.5%
- O=C(O)CSc1nc2ccc(N3C(=O)C4CCCCC4C3=O)cc2s1 (stereo not given) — higher, 5.9%
- COC(=O)CN(c1cc(Cl)ccc1OC)S(=O)(=O)c1ccc(C)c([N+](=O)[O-])c1 — higher, 5.7%
- CC(=O)Nc1ccc(C(=O)NCCCN(C)C)cc1 — lower, -6.4%
- Cc1c(OCC(=O)OCc2ccccc2)ccc2c3c(c(=O)oc12)CCCC3 — higher, -2.6%
- CC(=O)Nc1cccc(-c2nnc(-c3cccc(NC(C)=O)c3)o2)c1 — lower, -11.4%
- CC(C)=CC1C=C(C)C(C)C(C(=O)O)C1C(=O)O (stereo not given) — higher, 9.4%
- COc1ccc(CC2S/C(=N\N=C\c3ccc(C(C)C)cc3)NC2=O)cc1 (stereo not given) — higher, 3.4%
- O=C(Nc1nc(-c2ccc(-c3ccccc3)cc2)cs1)C1CC1 — higher, -1.1%
- COc1ccc(-n2c(C=C3C(=O)Nc4ccc(C)cc43)nc3ccccc3c2=O)cc1 — higher, 5.5%
- COC(=O)c1sccc1NC(=O)CCc1ccccc1 — lower, -6.8%
- Cc1cc(OCC(O)CN2CCN(CCO)CC2)cc(C)c1Cl (stereo not given) — higher, -5.1%
- O=C(CCCN1C(=O)/C(=C/c2ccccc2)SC1=S)Nc1ccc(O)cc1 — higher, 10.6%
- O=C1C=CC(=NS(=O)(=O)c2cc(Cl)ccc2Cl)C=C1 — higher, 10.6%
- Cc1ccc(-c2cc3nc(C)c(C)c(=O)n3[nH]2)cc1 — lower, -8%
- Cc1cc2ncn(C(=O)c3cccc(I)c3)c2cc1C — lower, -5.7%
- CC1=NN(C(=O)c2ccccc2)C(O)(c2ccc(Br)cc2)C1 (stereo not given) — lower, -5.5%
- CCOC(=O)C1=C(C)N=c2s/c(=C\c3ccco3)c(=O)n2C1c1cccc(OC)c1 (stereo not given) — lower, -25.3%
- CC1=C(C(=O)OC2CCCC2)C(c2ccccc2)C2=C(CC(C)(C)CC2=O)N1 (stereo not given) — higher, 6.2%
- COc1ccc(N=C2NC(=O)/C(=C\c3ccco3)S2)cc1 — higher, 7.4%
- O=C(/C=C/c1ccccc1Cl)N1CCCCCC1 — higher, 11.9%
- C=CCNC(=O)C(=O)NCC1CCCO1 (stereo not given) — higher, 9%
- O=C(N/N=C/c1cccs1)c1cc(C2CC2)[nH]n1 — higher, -3.3%
- CCOC(=O)c1c(NC(=O)OC)sc(C)c1CC — lower, -59.7%
- CC(C)C(NS(=O)(=O)c1ccccc1[N+](=O)[O-])C(=O)Nc1cccc2ccccc12 (stereo not given) — higher, 7.8%
- CCSc1nc2ccccc2n1CC(=O)Nc1c(C)cccc1C — higher, 6.7%
- CCOC(=O)CSc1nc2sc3c(c2c(=O)n1C1CCCCC1)CCCC3 — higher, -1.1%
- O=C(Oc1ccc([N+](=O)[O-])cc1)c1cc(S(=O)(=O)N2CCCCC2)c(Cl)cc1Cl — lower, -8.7%
- O=C(Nc1ccc2nc(SCc3ccc(F)cc3)sc2c1)c1ccccc1C(=O)N1CCCC1 — lower, -8.4%
- C=CCn1c(=N)n(CC(O)c2ccc(C)cc2)c2ccccc21 (stereo not given) — lower, -7%
- O=C(Nc1ccc(OC(F)(F)F)cc1)c1cccc2c(Br)cccc12 — higher, 5.8%
- Cc1ccccc1S(=O)(=O)NNC(=O)c1ccccc1O — higher, 4.7%
- O=C1c2ccccc2C(=O)N1Cc1nc2ccccc2c(=O)o1 — higher, 4.2%
- Cc1cc(C)nc(NS(=O)(=O)c2ccc(NC(=O)CSc3nc(C)cc(C)n3)cc2)n1 — higher, 4.1%
- O=C1OC(c2ccccc2)=C/C1=C/c1ccc(-c2ccc([N+](=O)[O-])cc2)o1 — lower, -5.6%
- C=CCOc1ccc(Cl)cc1/C=C1/C(=O)NN(c2ccccc2)C1=O — higher, 9.7%
- CCOC(=O)C(CCCCOc1ccccc1OC)C(=O)OCC — higher, 3.7%
- O=C(O)CCn1c(=S)n(CCC(=O)O)c2ccccc21 — higher, 2.6%
- COc1ccc2c(Cl)c(C(=O)N3CCOCC3)sc2c1 — lower, -17.4%
- COc1ccccc1C(=O)N1CCN(Cc2cccc(Cl)c2)CC1 — lower, -10.2%
- O=C(O)c1ccc(-c2ccc(/C=C3\SC(=S)N(c4cccc(F)c4)C3=O)o2)cc1 — lower, -25.5%
- COc1cccc(OCc2cc(C3Nc4ccccc4C(=O)N3Cc3ccccc3)ccc2OC)c1 (stereo not given) — lower, -6.9%
- Cc1cccc(C(=O)Nc2sc3c(c2C(=O)NCc2ccco2)CCC3)c1 — lower, -19.6%
- Nc1cccc(-c2nnc(-c3ccccc3)o2)c1 — higher, 4.5%
- O=C1C2C3C=CC(C4CC34)C2C(=O)N1c1ccccc1F (stereo not given) — lower, -5.8%
- O=C(c1ccccc1[N+](=O)[O-])N1CCC(Cc2ccccc2)CC1 — higher, -4%
- Cc1cccc(C(=O)N(C(=O)c2cccc(C)c2)c2ncccc2C)c1 — higher, 20.7%
- Cc1cccc(CC(Cc2nc3ccccc3[nH]2)c2nc3ccccc3[nH]2)c1 (stereo not given) — higher, -0.9%
- CCOc1cccc2c1NC(C)(C)C1=C2C2(SC(C(=O)OC)=C(C(=O)OC)S2)C(C(=O)OC)=C(C(=O)OC)S1 — higher, 7.4%
- COc1ccc(-n2nc3cc(C)c(NC(=O)c4cccs4)cc3n2)cc1 — higher, -1.3%
- Cc1ccc(NC(=O)C(F)(F)F)cc1C — higher, 14.4%
- Cc1ccc(/C(N)=N/OC(=O)c2ccc(C)c([N+](=O)[O-])c2)cc1 — higher, 12.3%
- COC(=O)CNC(c1ccccc1)c1cc(Br)ccc1NC(=O)CCCNC(=O)OCc1ccccc1 (stereo not given) — higher, 15.4%
- CC(C)OC(=O)c1c(-c2ccc(Br)cc2)csc1N — lower, -8.4%
- Cc1ccc(C)c(S(=O)(=O)N=Nc2c(O)[nH]c3ccc(Br)cc23)c1 — higher, 13.1%
- Cc1cc(/C=C2\C(=O)NC(=O)N(c3ccccc3F)C2=O)c(C)n1C — higher, 20.4%
- NC(=O)N=Nc1c(O)[nH]c2ccccc12 — higher, 6.6%
- CC(C)CNC(=O)CN(c1ccc(C(C)C)cc1)S(=O)(=O)c1ccccc1 — higher, 2.2%
- O=C(Nc1ccccc1C(F)(F)F)c1cc(I)ccc1Cl — higher, -4.4%
- COc1ccc(NC(=O)Cn2nc(C(F)(F)F)c(Br)c2C)c(OC)c1 — lower, -6.7%
